{"source": "PubChem BioAssay AID686978", "about": "(National Center for Advancing Translational Sciences (NCATS), 2013)", "note": "Several values for one entry are separate records, joined by “and”; a condition that tells them apart may be missing. Identical values can stand only once. The whole screen tested about 420,000 compounds, of which about 64,000 (15%) were called active. The inconclusive results got no clear call from the source; some entries with a clear call stand among them for comparison. The call rests on the fitted dose curve; in most records, active means well fitted inhibition curve with a large enough effect; inconclusive means small, poorly fitted or top-dose-only effect; inactive means flat fitted curve, though single readings scatter. Potencies of inconclusive entries are doubtful fits and often do not repeat. On the % scale 0 is the no-effect control and ±100 the full control effect; potency means the concentration at half of the fitted maximal effect; tags describe the fitted curve by direction and shape."}
{"assay": "qHTS for Inhibitors of human tyrosyl-DNA phosphodiesterase 1 (TDP1): qHTS in cells in absence of CPT; further: nearly all actives have a fitted effect of over 55% in size", "settings": "DT40 Tdp1-/- hTDP1 cells, no CPT, ATP luminescence, 48 h; activity change, negative = growth inhibition: at 46.2 µM (top of the series) unless noted", "how_it_was_run": "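Cells were dispensed at 400 per well, compounds added by pin tool, plates incubated ≥48 hr at 37 °C, then CellTiter-Glo added for 30 min at room temperature before luminescence reading. Line: DT40 Tdp1-/- complemented with hTDP1; camptothecin omitted.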"}
{"smiles": "C=CCc1cc(C)ccc1OCCOCCn1ccnc1", "Potency": "inconclusive: 29.1 µM [inhibitor, single point]"}
{"smiles": "CCCSc1nnc(NC(=O)c2cc(=O)c3ccccc3o2)s1", "activity change, negative = growth inhibition": "inactive: -16.6%"}
{"smiles": "CC(=O)OC1CCC2(C)C3CCC4(C)C(C(C)=O)CCC4C3CC3OC32C1", "note": "(centres undefined)", "Potency": "inconclusive: 16.4 µM [inhibitor, partial curve]"}
{"smiles": "COc1ccccc1-c1ccc2ncnc(N3CCN(C)CC3)c2c1", "Potency": "active: 7.31 µM"}
{"smiles": "COc1ccc(S(=O)(=O)N2CCCCCC2)cc1C(=O)OC(C)C(N)=O", "note": "(centres undefined)", "Potency": "inconclusive: 16.4 µM [inhibitor, single point]"}
{"smiles": "O=C(CC(=O)c1ccccc1)Nc1ccc(Cl)cc1", "Potency": "inconclusive: 23.1 µM [inhibitor, single point]"}
{"smiles": "Cc1cc(C(Br)(Br)Br)nc2ccccc12", "Potency": "active: 2.51 µM"}
{"smiles": "COc1ccc(S(=O)(=O)N(CCc2ccccc2)CC(=O)Nc2cc(Cl)ccc2C)cc1", "Potency": "inconclusive: 29.1 µM [inhibitor, single point]"}
{"smiles": "COc1ccc(NC(=O)C2CCCN(S(=O)(=O)c3ccc4[nH]c(=O)ccc4c3)C2)cc1Cl", "note": "(centres undefined)", "Potency": "inconclusive: 16.4 µM [inhibitor, partial curve]"}
{"smiles": "OCC1(CO)CC2(C1)CC(CO)(CO)C2", "activity change, negative = growth inhibition": "inactive: 1.95%"}
{"smiles": "COC(=O)c1cc2sccc2n1Cc1c(C)cc(C)cc1C", "Potency": "inconclusive: 29.1 µM [inhibitor, single point]"}
{"smiles": "Cc1cc(-c2nnco2)c(C)n1-c1ccc(F)cc1", "Potency": "inconclusive: 9.2 µM [inhibitor, partial curve]"}
{"smiles": "Cc1ccc(S(=O)(=O)NCc2ccncc2)cc1", "Potency": "active: 3.66 µM"}
{"smiles": "COc1cccc(C2(c3cccc(OC)c3)CC2C(=O)Nc2ccc(F)cc2)c1", "note": "(centres undefined)", "activity change, negative = growth inhibition": "inactive: -25.3%"}
{"smiles": "O=C1CCN(Cc2ccccc2)S(=O)(=O)c2c(F)cc(F)cc21", "Potency": "inconclusive: 28.2 µM [inhibitor, partial curve, poor fit] and inconclusive: 29.1 µM [inhibitor, single point]"}
{"smiles": "O=C(c1cccc(Cl)c1)N(Cc1cccc(F)c1)C1CCS(=O)(=O)C1", "note": "(centres undefined)", "activity change, negative = growth inhibition": "inactive: -19.1%"}
{"smiles": "NC(=O)c1c(NC(=O)CS(=O)(=O)c2ccc(Cl)cc2)sc2c1CCCC2", "Potency": "inconclusive: 18.4 µM [inhibitor, partial curve]"}
{"smiles": "O=[N+]([O-])c1ccc(/C=C/C2=NN(c3ccccc3)C(c3ccco3)C2)o1", "note": "(centres undefined)", "Potency": "inconclusive: 18.4 µM [inhibitor, single point]"}
{"smiles": "C=CCc1ccc(OCCOCCOc2cccc3ccc(C)nc23)c(OC)c1", "Potency": "active: 11.2 µM"}
{"smiles": "CC12CCC(C/C1=N\\N=C1\\NC(=O)/C(=C\\c3cccc(Br)c3)S1)C2(C)C", "note": "(centres undefined)", "Potency": "inconclusive: 29.1 µM [inhibitor, single point]"}
{"smiles": "COc1ccccc1C(=O)Nc1ccccc1OCc1cc(=O)n2cc(C)sc2n1", "Potency": "inconclusive: 16.4 µM [inhibitor, partial curve]"}
{"smiles": "O=C(c1ccc(Br)o1)N1N=C(c2ccc(Cl)cc2)CC1c1ccco1", "note": "(centres undefined)", "activity change, negative = growth inhibition": "inconclusive: -32.9% [inhibitor]"}
{"smiles": "O=C(CCc1nc2ccccc2c(=O)[nH]1)NCc1ccco1", "Potency": "inconclusive: 29.1 µM [inhibitor, single point]"}
{"smiles": "CCOc1cccc(C(=O)N(Cc2ccc(C(C)C)cc2)C2CCS(=O)(=O)C2)c1", "note": "(centres undefined)", "Potency": "inconclusive: 29.1 µM [inhibitor, single point]"}
{"smiles": "CCCn1c(-c2cccc(F)c2)nc2c1c(=O)[nH]c(=O)n2Cc1ccccc1", "activity change, negative = growth inhibition": "inactive: -19%"}
{"smiles": "COc1cccc(-c2nccc(NCc3ccccc3)n2)c1", "Potency": "inconclusive: 10.3 µM [inhibitor, partial curve, poor fit]"}
{"smiles": "Cc1cc(/C=C/c2ccccc2)nc2ccccc12", "Potency": "active: 10 µM"}
{"smiles": "Cc1ccc(S(=O)(=O)N2CCN(S(=O)(=O)c3ccccc3Br)C2=O)cc1", "Potency": "inconclusive: 25.9 µM [inhibitor, single point]"}
{"smiles": "CCC(=O)NC(=S)Nc1ccc2oc(-c3ccc(OC)cc3)nc2c1", "activity change, negative = growth inhibition": "inactive: -26.6%"}
{"smiles": "Cn1c(Cc2cccc3ccccc23)nnc1SCc1ccc([N+](=O)[O-])cc1", "activity change, negative = growth inhibition": "inconclusive: -36.3% [inhibitor]"}
{"smiles": "CC(C)N1CCc2c(sc(NC(=O)CCS(=O)(=O)c3ccccc3)c2C(N)=O)C1", "Potency": "inconclusive: 14.6 µM [inhibitor, partial curve, poor fit]"}
{"smiles": "COCC(C)NC(=O)COc1ccc(Cl)cc1Cl", "note": "(centres undefined)", "Potency": "inconclusive: 7.31 µM [inhibitor, partial curve]"}
{"smiles": "CCOC(=O)C1C(=O)C=C(c2cccs2)CC1c1ccccc1", "note": "(centres undefined)", "Potency": "active: 16.4 µM"}
{"smiles": "Cc1ccc(NC(=O)C2CCN(C(=O)c3sc4nc[nH]c(=O)c4c3C)CC2)cc1F", "activity change, negative = growth inhibition": "inactive: -17%"}
{"smiles": "CC1(C)CC(=O)C=C(c2ccc(COC(=O)c3ccc(-c4ccccc4)cc3)cc2)C1=O", "Potency": "inconclusive: 29.1 µM [inhibitor, single point]"}
{"smiles": "Cc1cc(C)nc(Nc2n[nH]c(COc3ccc(Cl)cc3)n2)n1", "Potency": "inconclusive: 13 µM [inhibitor, partial curve]"}
{"smiles": "COc1ccc(CNC(=O)CN(C(=O)c2snc(C(N)=O)c2N)c2cccc(F)c2)cc1", "activity change, negative = growth inhibition": "inconclusive: -25.9% [inhibitor]"}
{"smiles": "CC(=O)Oc1ccc(C(=O)Nc2ccc(C3(C#N)CCCC3)cc2)cc1", "Potency": "active: 16.4 µM"}
{"smiles": "Cc1ccc(S(=O)(=O)CCC(=O)c2ccc(F)cc2)cc1", "Potency": "active: 2.59 µM"}
{"smiles": "C=C(C)C1CC=C(C)/C(=N/NC(=O)c2ccccc2[N+](=O)[O-])C1", "note": "(centres undefined)", "Potency": "inconclusive: 20.6 µM [inhibitor, partial curve]"}
{"smiles": "Cc1ccc(S(=O)(=O)N2CCN(CC(=O)NC3CCCc4ccccc43)CC2)cc1C", "note": "(centres undefined)", "Potency": "active: 18.4 µM"}
{"smiles": "COCCn1c(N)c(N(Cc2ccccc2)C(=O)C(C)Oc2ccc(Br)cc2)c(=O)[nH]c1=O", "note": "(centres undefined)", "Potency": "inconclusive: 29.1 µM [inhibitor, single point]"}
{"smiles": "O=c1[nH]c2cc(Cl)ccc2c(O)c1-c1cccc(Oc2ccccc2)c1", "Potency": "inconclusive: 10.6 µM [inhibitor, partial curve, poor fit] and inconclusive: 29.1 µM [inhibitor, single point]"}
{"smiles": "Cc1ccc(S(=O)(=O)N2CCN(c3nc(-c4cncs4)nc4ccccc34)CC2)cc1", "Potency": "active: 7.08 µM"}
